# Data taken from the supplement of paper PMC9938546.
# Counter-ions that a name gives are not always drawn. Some of the results follow. Single values are uncertain, as repeats are few or missing.
# System: HCT116-GFP
# Experiment: HCT116-GFP viability (GFP intensity) relative to untreated control, monoculture; higher = less cancer cell killing
# Conditions: culture: HCT116-GFP monoculture; 10 µM; 72 h
# 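Further: viability estimated indirectly by image-based GFP quantification with live-cell imaging of the constitutively GFP-expressing human colorectal cancer line, no immune cells added.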
row,Structure (SMILES),HCT116-GFP viability [%]
1,Nc1nc(N)nc(-c2cc(Cl)ccc2Cl)n1 [Irsogladine maleate],94.6
2,CCN1CCCC1CNC(=O)c1cc(S(=O)(=O)CC)c(N)cc1OC (stereo not given) [Amisulpride],96.3
3,CC(C)[C@H]1CC[C@H](C(=O)N[C@H](Cc2ccccc2)C(=O)O)CC1 [Nateglinide],99.1
4,CC(C)c1nc(CN(C)C(=O)N[C@H](C(=O)N[C@@H](Cc2ccccc2)C[C@H](O)[C@H](Cc2ccccc2)NC(=O)OCc2cncs2)C(C)C)cs1 [Ritonavir],99.1
5,COc1ccccc1OCCNCC(O)COc1cccc2[nH]c3ccccc3c12 (stereo not given) [Carvedilol],47.5
6,CC1CCc2cc(F)cc3c(=O)c(C(=O)O)cn1c23 (stereo not given) [Flumequine],87.9
7,O=C(NCC1CCCCN1)c1cc(OCC(F)(F)F)ccc1OCC(F)(F)F (stereo not given) [Flecainide acetate],104
8,CCCCOc1ccc(OCCCN2CCOCC2)cc1 [Pramoxine hydrochloride],98.4
9,CCOC(=O)C1=C(C)NC(C)=C(C(=O)OC)C1c1cccc([N+](=O)[O-])c1 (stereo not given) [Nitrendipine],100
10,CCn1cc(C(=O)O)c(=O)c2cc(F)c(N3CCNCC3)cc21 [Norfloxacin],91.9
11,O=C(c1ccc(OCCN2CCCCC2)cc1)c1c(-c2ccc(O)cc2)sc2cc(O)ccc12 [Raloxifene hydrochloride],81.4
12,CC(CN1c2ccccc2Sc2ccccc21)N(C)C (stereo not given) [Promethazine hydrochloride],99.3
13,NS(=O)(=O)c1cc2c(cc1C(F)(F)F)NC(Cc1ccccc1)NS2(=O)=O (stereo not given) [Bendroflumethiazide],94.7
14,CN(C)CCCC1(c2ccc(F)cc2)OCc2cc(C#N)ccc21 (stereo not given) [Citalopram Hydrobromide],92.8
15,CCCC(CCC)C(=O)O [Valproic acid],78.8
16,Cc1onc(-c2ccccc2)c1C(=O)N[C@@H]1C(=O)N2[C@@H]1SC(C)(C)[C@@H]2C(=O)O [Oxacillin sodium],95.8
17,O=C(O)CNC(=O)C(CS)Cc1ccccc1 (stereo not given) [Thiorphan],106
18,CN(C)CCC(c1ccc(Cl)cc1)c1ccccn1 (stereo not given) [Chlorpheniramine maleate],89.5
19,COc1cc(N)c(Cl)cc1C(=O)NC1CCN(CCCOc2ccc(F)cc2)CC1OC (stereo not given) [Cisapride],77.3
20,COC1=CC(=O)C[C@@H](C)[C@]12Oc1c(Cl)c(OC)cc(OC)c1C2=O [Griseofulvin],61.1
21,COC(=O)Nc1nc2cc(C(=O)c3ccc(F)cc3)ccc2[nH]1 [Flubendazol],8.36
22,O=C(O[C@@H]1C[C@@H]2C[C@H]3C[C@H](C1)N2CC3=O)c1c[nH]c2ccccc12 [Dolasetron mesilate],97.3
23,CC(C)(C)NC(=O)[C@@H]1CN(Cc2cccnc2)CCN1C[C@@H](O)C[C@@H](Cc1ccccc1)C(=O)N[C@H]1c2ccccc2C[C@H]1O [Indinavir sulfate],45.3

row,Structure (SMILES),HCT116-GFP viability [%]
1,CC(C)(C)NCC(O)c1ccc(O)c(CO)c1 (stereo not given) [Salbutamol],87.8
2,Cc1c(OCC(F)(F)F)ccnc1C[S+]([O-])c1nc2ccccc2[nH]1 (stereo not given) [Lansoprazole],98.8
3,Cn1c(=O)c2c(ncn2C)n(C)c1=O [Caffeine],103
4,O=C(O)c1cc(=O)c2c(OCC(O)COc3cccc4oc(C(=O)O)cc(=O)c34)cccc2o1 [Cromolyn disodium salt],97.8
5,Cc1ccc(O)c([C@H](CCN(C(C)C)C(C)C)c2ccccc2)c1 [Tolterodine tartrate],29.3
6,C=CCc1ccccc1OCC(O)CNC(C)C (stereo not given) [Alprenolol hydrochloride],107
7,NC[C@H]1CC[C@H](C(=O)O)CC1 [Tranexamic acid],104
8,CCCCOc1ccc(CC(=O)NO)cc1 [Bufexamac],106
9,CC(=O)OC(C)C[N+](C)(C)C (stereo not given) [Methacholine chloride],103
10,CCSc1ccc2c(c1)N(CCCN1CCN(C)CC1)c1ccccc1S2 [Thiethylperazine dimalate],47.6
11,Cc1c(O)cccc1C(=O)N[C@@H](CSc1ccccc1)[C@H](O)CN1C[C@H]2CCCC[C@H]2C[C@H]1C(=O)NC(C)(C)C [Nelfinavir mesylate],46.6
12,CN(C)CCC(c1ccccc1)c1ccccn1 (stereo not given) [Pheniramine maleate],100
13,CCN(CCCc1ccccc1)CCCc1ccccc1 [Alverine citrate salt],98.2
14,O=P(O)(O)C(O)(Cc1cccnc1)P(=O)(O)O [Risedronic acid monohydrate],45.5
15,CCN(CC)C(=O)N1CCN(C)CC1 [Diethylcarbamazine citrate],91
16,C=CC[N@@+]12CC[C@@]34c5ccccc5N5/C=C6/[C@H]7C[C@H]8[C@@]9(CC[N@@+]8(CC=C)C/C7=C/CO)c7ccccc7N(/C=C(/[C@@H](C[C@@H]31)/C(=C\CO)C2)[C@H]54)[C@@H]69 [Alcuronium chloride],90.2
17,CCCC(C(=O)OCCN(CC)CC)(c1ccccc1)c1ccccc1 [Proadifen hydrochloride],89
18,Clc1ccccc1C(c1ccccc1)(c1ccccc1)n1ccnc1 [Clotrimazole],42.1
19,Clc1ccc(COC(Cn2ccnc2)c2ccc(Cl)cc2Cl)cc1 (stereo not given) [Econazole nitrate],56.6
20,CNC1(C)C2CCC(C2)C1(C)C (stereo not given) [Mecamylamine hydrochloride],94.7
21,C=C(NC(=O)C(=C)NC(=O)c1csc(C2=N[C@@H]3c4csc(n4)[C@H]4NC(=O)c5csc(n5)[C@H]([C@](C)(O)[C@@H](C)O)NC(=O)[C@H]5CSC(=N5)/C(=C/C)NC(=O)[C@H]([C@@H](C)O)NC(=O)c5csc(n5)[C@]3(CC2)NC(=O)[C@H](C)NC(=O)C(=C)NC(=O)[C@H](C)NC(=O)[C@H]([C@@H](C)CC)N[C@@H]2C=Cc3c([C@H](C)O)cc(nc3[C@H]2O)C(=O)O[C@@H]4C)n1)C(N)=O [Thiostrepton],2.37
22,CC(=C(CCO)SSCC1CCCO1)N(C=O)Cc1cnc(C)nc1N (stereo in doubt) [Fursultiamine Hydrochloride],113
